In ChEMBL document CHEMBL4888484, “Replenishing the malaria drug discovery pipeline: Screening and hit evaluation of the MMV Hit Generation Library 1 (HGL1) against asexual blood stage Plasmodium falciparum ,using a nano luciferase reporter read-out” (2022):
The campaign covered roughly 150,000 compounds. About 540 (0.36%) showed an effect of 50% or more. This is one part of the list.

The compounds below were run on Plasmodium falciparum (assay: Primary screen in NF54 nanoGlo assay, in single point, at 2uM, 72h; a lower Z score goes with more inhibition). Conditions: timepoint 72 hour.
Assay type: functional, Erythrocyte

Which “% Inhibition” value does the source give for `Cc1cc(C)n(-c2ccc(Cn3c(C(F)(F)F)nc4ccccc43)cc2)n1` here?
The value was -4%.

And the Z score?
Its Z score is 0.41.

Which results are given for `CCc1cc(C(=O)NCc2ccco2)nc2cc(-c3ccco3)nn12`?
% Inhibition: -2%; Z score: 0.26

With `O=C(NCc1ccc(-n2cncn2)nc1)c1cccnc1` as the compound, how does the “% Inhibition” value read?
The value was 9%.

What about the Z score of the same compound?
The Z score was -1.14.

`CCC(=O)N1CCCC[C@H]1c1nnc2n1CCN(C(=O)c1ccncn1)C2` was tested. Which “% Inhibition” value did it give?
The value was 2%.

And the Z score?
The Z score was -0.35.

For `COc1ncc(NC(=O)Nc2ccc(F)cc2F)cn1`, which “% Inhibition” value is on record?
The value was -2%.

What about the Z score of the same compound?
The Z score was 0.3.

With `CC(=O)C(=CNc1ncc(C(F)(F)F)cc1Cl)C(C)=O` as the compound, how does the “% Inhibition” value read?
Its value is -6%.

What about the Z score of the same compound?
The Z score was 1.17.

Which “% Inhibition” value does the source give for `CC[C@](C)(NCCCN1C(=O)CNC1=O)c1nccs1` here?
The value was -11%.

And the Z score?
Its Z score is 1.74.

For `Cc1nc(-c2noc(-c3ccncc3)n2)cn1CC(=O)NCc1ccccc1`, which “% Inhibition” value is on record?
Its value is -1%.

What about the Z score of the same compound?
Its Z score is 0.09.

For `C[C@H](NCc1nnc(C2CC2)o1)c1ccc(F)cc1Cl`, which “% Inhibition” value is on record?
Its value is 1%.

And the Z score?
Its Z score is -0.23.

With `Cn1cc(NC(=O)[C@H]2CC(=O)N(c3ccc(F)cc3)C2)cc1C(N)=O` as the compound, how does the “% Inhibition” value read?
The value was -9%.

What about the Z score of the same compound?
The Z score was 1.69.

Which results are given for `CC(C1CC1)N(C)CC(=O)N1CCCCC1C` (stereo unspecified)?
% Inhibition: -16%; Z score: 2.01

What does the source list for `COCCN1C(=O)Cc2ccccc2[C@@H]1C(=O)NCc1cccc(F)c1`?
% Inhibition: 1%; Z score: -0.15

`CCCc1csc(CC(=O)NCc2ccco2)n1` was tested. Which “% Inhibition” value did it give?
The value was -4%.

And the Z score?
The Z score was 0.52.

For `CCCN(CCC)C(=O)c1c(CC)noc1C`, which “% Inhibition” value is on record?
Its value is -2%.

And the Z score?
The Z score was 0.32.

How did the “% Inhibition” value turn out when `COCCn1ccnc1CN1CC[C@]2(OC)CC[C@@H](OC)C[C@H]12` was run?
Its value is -18%.

And the Z score?
The Z score was 1.81.

Which results are given for `Cc1ccc(F)cc1NC(=O)NC(C)(C)COc1ncccc1Br`?
% Inhibition: -7%; Z score: 0.97

Which results are given for `CCn1cncc1CN(C)C[C@H](C)N1CCOCC1`?
% Inhibition: -7%; Z score: 1.04

Which results are given for `CN1CCCC1C1CCCN1C(=O)c1n[nH]c(=O)c2ccccc12` (stereo unspecified)?
% Inhibition: -1%; Z score: 0.09

For `O=C(CCn1c(=O)[nH]c2ccccc21)N1CC[C@H](O)[C@@H](O)C1`, which “% Inhibition” value is on record?
Its value is 1%.

And the Z score?
Its Z score is -0.1.

`Cc1nn(C)c2nc(-c3ccncc3)nc(N3CCC(=O)NC[C@@H]3C)c12` was tested. Which “% Inhibition” value did it give?
The value was -2%.

And the Z score?
Its Z score is 0.27.

Which results are given for `COC[C@H](C)Oc1ccc(Cl)cc1S(=O)(=O)N1CCc2cnccc21`?
% Inhibition: -14%; Z score: 1.63

How did the “% Inhibition” value turn out when `Cc1nnc([C@H](C)N(C)Cc2cnn(-c3ccccc3)c2)o1` was run?
Its value is -5%.

And the Z score?
Its Z score is 0.86.

What does the source list for `CCC(CC#N)OC(=O)CC(C)NC(=O)C1CCCC1` (stereo unspecified)?
% Inhibition: -15%; Z score: 1.9

For `COc1ccccc1N1CCN(C(=O)C2CN(c3cc(-n4cccn4)ncn3)C2)CC1`, which “% Inhibition” value is on record?
The value was 20%.

And the Z score?
Its Z score is -2.59.

`COCC1CN(C(=O)NCCCCN(C)c2ccccc2)C1` was tested. Which “% Inhibition” value did it give?
Its value is -1%.

What about the Z score of the same compound?
The Z score was 0.2.

Which “% Inhibition” value does the source give for `Cc1ncsc1C(=O)NC[C@H](O)c1ccc(Cl)s1` here?
The value was -9%.

What about the Z score of the same compound?
The Z score was 1.26.

For `CCOC(=O)N1CCN(CC2CC3C=CC2C3)CC1` (stereo unspecified), which “% Inhibition” value is on record?
Its value is 8%.

What about the Z score of the same compound?
Its Z score is -1.26.

With `CCS(=O)(=O)NC1(C#N)CCCC(C)C1` (stereo unspecified) as the compound, how does the “% Inhibition” value read?
The value was 0%.

What about the Z score of the same compound?
The Z score was 0.01.

With `Cc1ncn(-c2ccc(CNC(=O)c3ccccc3)cc2)c1C` as the compound, how does the “% Inhibition” value read?
Its value is -3%.

What about the Z score of the same compound?
Its Z score is 0.34.

Which results are given for `COCc1nccc(N2CCC3(CC2)C[C@@H]3C(=O)N2CCCCC2)n1`?
% Inhibition: -4%; Z score: 0.48

How did the “% Inhibition” value turn out when `O=C(c1nc(N2CCOCC2)ncc1Cl)N1CCCCCC1` was run?
The value was -13%.

What about the Z score of the same compound?
Its Z score is 1.36.

With `Cc1nc(N)ncc1C(=O)N1CCN(Cc2ccc3c(c2)OCO3)C(=O)C1` as the compound, how does the “% Inhibition” value read?
The value was -5%.

And the Z score?
The Z score was 0.99.

For `Cc1cnn([C@H]2CCN(C(=O)Nc3ccc(-c4cnn(C)c4)c(C)n3)C2)c1`, which “% Inhibition” value is on record?
The value was -2%.

What about the Z score of the same compound?
The Z score was 0.45.

What does the source list for `COc1ccccc1-n1nc(Cc2ccccc2)n(CC(=O)N[C@@H](C)C2CC2)c1=O`?
% Inhibition: -9%; Z score: 1.02

Which results are given for `Cc1c(Cl)cccc1NC(=O)[C@H](C)NC1CCN(C)CC1`?
% Inhibition: 4%; Z score: -0.65

How did the “% Inhibition” value turn out when `O=c1c2nc(-c3ccc4c(c3)OCO4)cn2ccn1-c1cccc(Cl)c1` was run?
The value was -17%.

And the Z score?
Its Z score is 2.2.

What does the source list for `CC[C@H](NCc1nncn1CC)c1ccc(F)cc1F`?
% Inhibition: -9%; Z score: 1.2

What does the source list for `O=C(c1cccc(F)c1)N1CCN(Cc2cccc(Oc3ccccc3)c2)CC1`?
% Inhibition: -10%; Z score: 1.67

How did the “% Inhibition” value turn out when `COc1ccc(-c2nnsc2C(=O)NCC2CC3C=CC2C3)cc1` (stereo unspecified) was run?
Its value is -8%.

And the Z score?
The Z score was 1.52.

What does the source list for `N#C[C@]1(F)CCN(c2nc(-c3ccnc(C(F)(F)F)c3)cs2)C1`?
% Inhibition: -16%; Z score: 1.85

For `COc1ccc(CC(=O)Nc2ccc3ncnc(N4CCCCC4)c3c2)c(Cl)c1`, which “% Inhibition” value is on record?
The value was -19%.

What about the Z score of the same compound?
The Z score was 1.83.

What does the source list for `CCn1cc(C(=O)N2CCO[C@@H](Cc3nc(COC)no3)C2)cn1`?
% Inhibition: -9%; Z score: 1.76

`CC1CCN(C(=O)c2cc3occc3c(Nc3ccc(F)cc3)n2)CC1` was tested. Which “% Inhibition” value did it give?
The value was -20%.

What about the Z score of the same compound?
The Z score was 2.05.
